Experimental data as given in PMC4336329 (PLoS ONE, 2015).
Hit rate of the full screen: of about 310,000 compounds, about 14,000 (4.5%) showed an effect of 50% or more. Effects have a minus sign here. The list shows a part of the results.

molecular target: human ether-à-go-go-related gene (hERG) potassium channel (human, UniProt Q12809); assay: primary screen, population patch clamp on CHO cells stably expressing hERG
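Further: peak tail current of the secondary pulse compared with the same well before compound.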

human ether-à-go-go-related gene (hERG) potassium channel, sequence (Q12809 whole entry, looked up): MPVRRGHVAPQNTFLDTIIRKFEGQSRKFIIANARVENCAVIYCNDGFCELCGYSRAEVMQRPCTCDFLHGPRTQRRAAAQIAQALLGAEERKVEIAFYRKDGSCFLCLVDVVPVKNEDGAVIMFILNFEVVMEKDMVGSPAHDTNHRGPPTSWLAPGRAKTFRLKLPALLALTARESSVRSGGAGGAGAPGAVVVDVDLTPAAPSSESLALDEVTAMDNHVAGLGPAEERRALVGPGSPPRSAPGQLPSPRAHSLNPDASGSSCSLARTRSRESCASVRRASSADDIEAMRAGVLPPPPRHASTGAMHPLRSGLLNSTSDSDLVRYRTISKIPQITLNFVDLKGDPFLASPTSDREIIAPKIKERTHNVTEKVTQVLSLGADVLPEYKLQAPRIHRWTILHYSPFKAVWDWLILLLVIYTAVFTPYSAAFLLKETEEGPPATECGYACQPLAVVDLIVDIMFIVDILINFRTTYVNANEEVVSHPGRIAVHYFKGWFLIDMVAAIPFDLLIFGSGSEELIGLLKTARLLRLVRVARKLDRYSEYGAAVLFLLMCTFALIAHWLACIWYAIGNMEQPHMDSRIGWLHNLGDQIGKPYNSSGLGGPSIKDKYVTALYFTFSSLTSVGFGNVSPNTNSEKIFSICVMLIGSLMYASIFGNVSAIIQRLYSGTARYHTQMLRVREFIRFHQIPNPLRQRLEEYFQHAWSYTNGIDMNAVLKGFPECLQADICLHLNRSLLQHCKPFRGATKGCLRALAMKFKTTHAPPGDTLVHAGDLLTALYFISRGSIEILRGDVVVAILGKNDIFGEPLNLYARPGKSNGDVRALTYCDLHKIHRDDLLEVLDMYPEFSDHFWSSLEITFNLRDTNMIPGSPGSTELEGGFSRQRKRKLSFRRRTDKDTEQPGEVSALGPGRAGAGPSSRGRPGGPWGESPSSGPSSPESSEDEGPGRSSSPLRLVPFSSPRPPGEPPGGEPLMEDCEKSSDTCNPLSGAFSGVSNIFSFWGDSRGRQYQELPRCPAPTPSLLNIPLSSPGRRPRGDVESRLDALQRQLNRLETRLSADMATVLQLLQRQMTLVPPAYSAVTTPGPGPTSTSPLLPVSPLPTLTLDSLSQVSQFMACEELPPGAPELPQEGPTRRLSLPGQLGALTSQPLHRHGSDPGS

Row | Compound | hERG current change (%, negative = inhibition) at 10uM
1 | C=CCNC(=S)N1CCN(c2ncc(C(F)(F)F)cc2Cl)CC1 | -33.7%
2 | CCC(C)(C)n1nnnc1C(c1cc2cccc(C)c2[nH]c1=O)N1CCCC1 (stereo not shown) | -0.736%
3 | O=C(Nc1cccc(-c2nnc(-c3ccccc3)o2)c1)C1CCCO1 (stereo not shown) | -66.5%
4 | COCC(=O)Nc1ccc([N+](=O)[O-])cc1C | -2.44%
5 | CC(C)(C)OC(=O)N1CC=C2C(C#N)=C(N)C(C#N)(C#N)[C@H](c3cccnc3)[C@H]2C1 | -1.45%
6 | COc1cc2c(cc1OC)C(c1ccccc1C)CC(=O)N2 (stereo not shown) | -2.27%
7 | COc1ccc(CCNC(=O)c2ccc(-c3cccc([N+](=O)[O-])c3)o2)cc1OC | -26.7%
8 | CCc1cccc2c(C(=O)COC(=O)C3=NNC(=O)CC3)c[nH]c12 | -51.6%
9 | COC(=O)c1ccc2nc(NC(=O)C3CC3)sc2c1 | 14%
10 | Cc1ccc(C)c(N=C2NC(=O)CS2)c1 | 13.6%
11 | CCCc1ccc(Oc2coc3cc(OCC(=O)Nc4ccccc4C)ccc3c2=O)cc1 | -0.217%
12 | COc1ccc(C2=Nn3c(nnc3-c3ccncc3)SC2)cc1 | -41.1%
13 | CN(C(=O)c1cc2nc(-c3ccco3)cc(C(F)(F)F)n2n1)C1CCCCC1 | -10.6%
14 | COc1ccc(S(=O)(=O)Nc2ccc(F)cc2)c(C)c1C | -8.11%
15 | Cc1nc([N+](=O)[O-])c(Sc2nc3ccccc3[nH]2)n1Cc1ccccc1 | 4.74%
16 | COc1ccc(/C=N/NC(=O)C(=O)N2CCCCCC2)cc1O | -30.3%
17 | Cc1ccc(S(=O)(=O)NC(C)c2ccccc2)cc1[N+](=O)[O-] (stereo not shown) | 9.16%
18 | O=C(CSc1ccc(Cl)cc1)NCc1ccco1 | 21.1%
19 | Cc1cccc(N(Cc2cc(=O)[nH]c3ccccc23)C(=O)CCl)c1 | -10.6%
20 | Cc1ccc(S(=O)(=O)N(C)CC(=O)O/N=C(\N)c2ccc([N+](=O)[O-])cc2)cc1 | -45.9%

Row | Compound | hERG current change (%, negative = inhibition) at 10uM
21 | CSc1nc(N2CCN(C)CC2)c2c(c1C#N)CC(C)(C)OC2 | -43.8%
22 | COCCn1c(SCC(=O)N2CCCCC2)nc2c([nH]c3ccccc32)c1=O | -20.5%
23 | CCC(=O)Nc1cc(C(C)(C)C)ccc1C(C)=O | 10.5%
24 | COc1ccc(NC(=O)c2sccc2SCc2cccc(C(F)(F)F)c2)cc1 | 12.8%
25 | COc1ccc(C2NC(=O)c3ccccc3N2)cc1 (stereo not shown) | 16.1%
26 | C=CCSc1nccc(-c2cc(Cl)sc2Cl)n1 | -15.7%
27 | Cc1cccc(/C=C\c2nc3ccccc3c(=O)[nH]2)c1 | 14.4%
28 | COCCNC(=O)c1c(CSc2ccc(F)cc2)noc1C(=O)NCc1ccccc1 | 6.56%
29 | Cc1ccccc1NC(=O)C1CCCN(c2nnc(N3CCCC3=O)s2)C1 (stereo not shown) | -10.7%
30 | O=C1c2ccccc2S(=O)(=O)N1CC1CC(c2ccc(Cl)cc2)=NO1 (stereo not shown) | -19.2%
31 | O=[N+]([O-])/C=C\c1ccc(N2CCOCC2)cc1 | -45.4%
32 | CCc1ccc(OCC(=O)Oc2ccc([N+](=O)[O-])cc2)cc1 | 28.7%
33 | CC1(C)CC(=O)c2c(n(S(=O)(=O)c3ccccc3)c3ccc(NS(=O)(=O)c4ccccc4)cc23)C1 | 17.7%
34 | CCN1c2ccccc2N(C)C1(C)c1ccccc1 (stereo not shown) | 0.481%
35 | C=C(C)C(=O)Nc1ccc(NC(C)C)cc1 | 18.7%
36 | CCOC(=O)c1c(-c2ccc(OC)cc2)csc1/N=C/C1=C(O)CCCC1=O | -1.25%
37 | O=C(N=C1SC2CS(=O)(=O)CC2N1Cc1ccccc1)C1CCCCC1 (stereo not shown) | 13.4%
38 | O=C(CSc1ccc(-c2ccccc2)nn1)NC1CCCC1 | 0.303%
39 | CCCC(=O)c1c(O)[nH]c(=O)[nH]c1=O | 4.71%
40 | Cc1nc(CNS(=O)(=O)c2cccc(F)c2)cs1 | 3.53%

Row | Compound | hERG current change (%, negative = inhibition) at 10uM
41 | CCOC(=O)c1c(C)[nH]c(N=Nc2cc(C(=O)O)cc(C(=O)O)c2)c1C | -4.88%
42 | Cc1ccc(Nc2cc(-n3cccn3)ncn2)c(C)c1 | -6.92%
43 | N#C/C(=C\c1ccc(Cl)cc1Cl)c1n[nH]c(Cn2cncn2)n1 | -2.22%
44 | CCOC(=O)N1CCC(N2C(=O)c3ccccc3C2Nc2ccccc2)CC1 (stereo not shown) | -9.74%
45 | CSc1sc(C(=O)NNC(C)=O)c2c1C1(CCC2)SCCS1 | 2.57%
46 | Cc1cccc(C(=O)Oc2ccc(/C=N/NC(=O)c3cc(O)cc(O)c3)cc2)c1 | 18.6%
47 | CC(=O)Nc1ccc(Sc2ncccc2C(=O)Nc2ccc(F)cc2)cn1 | 13.9%
48 | O=C(c1ccccc1Br)N1CCC(c2nc3ccccc3s2)CC1 | -35.1%
49 | CC(C)Oc1ccc(/C=C/C(=O)NCC2COc3ccccc3O2)cc1 (stereo not shown) | -2.55%
50 | CN(CC1COCCO1)c1nc2nonc2nc1N1CCSCC1 (stereo not shown) | -0.507%
51 | CCCCN1C(=O)CN(CCc2ccccc2)C(=O)C1c1ccc(OC)cc1 (stereo not shown) | -13.5%
52 | CCCCN1C(=O)C(O)(CC(=O)c2ccccn2)c2ccccc21 (stereo not shown) | 1.42%
53 | COc1cc(C2OC(=O)C3C(c4ccc(OC(C)=O)c(OC)c4)OC(=O)C23)ccc1OC(C)=O (stereo not shown) | 20.8%
54 | Cn1cnnc1SCC(=O)Nc1ccc2ccccc2c1 | 2.21%
55 | Cc1cc(C)nc(N(C#N)CC(=O)N2CCC(C(N)=O)CC2)n1 | 20.1%
56 | COc1ccccc1N1CC(C(=O)Nc2ccc(S(=O)(=O)N3CCOCC3)cc2)CC1=O (stereo not shown) | 10.2%
57 | COCOc1ccc(/C=C2/Oc3cc(OCOC)cc(OCOC)c3C2=O)c(OCOC)c1 | 13%
58 | COc1cccc(NS(=O)(=O)c2cn(C)c(=O)n(C)c2=O)c1 | 6.07%
